Values after ≈ are worked out from the molar mass of the structure shown. Read-outs that look alike come from different tables or passages of the source.
Assays:
[1] = test system: ESBL-positive Klebsiella pneumoniae J 14368/08; conditions: 24 h incubation
[2] = test system: Klebsiella pneumoniae D 11750/08; experiment: Antibacterial microdilution broth MIC, K. pneumoniae; conditions: 24 h incubation
[3] = test system: methicillin-resistant Staphylococcus aureus H 5996/08 (MRSA); experiment: Antibacterial microdilution broth MIC, MRSA; conditions: for MIC: Staphylococcus aureus
[4] = test system: Candida albicans ATCC 44859; experiment: Antifungal microdilution broth MIC, C. albicans; format: cell-based; conditions: ATCC44859, 24 h incubation, read-out: MIC CA 24 h
[5] = test system: Pseudomonas aeruginosa CCM 1961; experiment: Antibacterial microdilution broth MIC, P. aeruginosa; format: cell-based; conditions: 24 h incubation, read-out: MIC PA 24 h
Candida krusei E28 [6] = experiment: Antifungal microdilution broth MIC, C. krusei; format: cell-based; conditions: Pichia kudriavzevii, 24 h incubation, read-out: MIC CK 24 h
Candida tropicalis 156 [7] = experiment: Antifungal microdilution broth MIC, C. tropicalis; format: cell-based; conditions: 24 h incubation, read-out: MIC CT 24 h
[8] = test system: Staphylococcus epidermidis H 6966/08; experiment: Antibacterial microdilution broth MIC, S. epidermidis; format: cell-based; conditions: 24 h incubation, read-out: MIC SE 24 h
Trichosporon asahii 1188 [9] = experiment: Antifungal microdilution broth MIC, T. asahii; format: cell-based; conditions: 24 h incubation, read-out: MIC TA 24 h
[10] = Cytotoxicity, CellTiter 96 assay; format: cell-based, human; conditions: human, HepG2 cells, HepG2, 24 h incubation
Protocol: (§1) The cytotoxicity of the investigated compounds 1 and 2 was measured using the standard hepatic cell line HepG2 (Table 5). The used CellTiter 96 assay is based on the reduction of tetrazolium dye in living cells to formazan. This reduction is related to availability of NADH or NADPH. The parameter IC50, i.e., the concentration that reduces the viability of the cells to 50% of the maximal viability, was used as a measure of cytotoxicity. It was not possible to determine the exact IC50 values of two derivatives (compounds 2a, 2b) due to their limited solubility in the cell culture medium used in this experiment.
(§2) All of the compounds were tested to determine their cytotoxicity in the human hepatocellular liver carcinoma cell line HepG2 (passages 5–6 and 3–8; ECACC, Salisbury, UK) using a standard colorimetric method that involves measuring the reduction of a tetrazolium salt (CellTiter(R) 96 AQueous One Solution Cell Proliferation Assay; Promega, Fichtburg, MA, USA).
(§3) The cells were cultured in Minimum Essentials Eagle Medium (Sigma-Aldrich) supplemented with 10% foetal bovine serum (PAA), 1% L-glutamine solution (Sigma-Aldrich) and a non-essential amino acid solution (Sigma-Aldrich) in a humidified atmosphere containing 5% CO2 at 37 °C. The investigated compounds were dissolved in DMSO and a small volume was added to the cell culture. The tested compounds were prepared in triplicates at concentrations ranging from 1 to 1500 µM. Simultaneously, the following types of controls were also included in triplicates: determination of 100% viability and 0% viability (the cells were treated with 10% DMSO), no cell control and vehiculum controls. […] After 2 h incubation at 37 °C, absorbance of samples was recorded at 490 nm (Infinita M200, TECAN, Grödig, Austria). A standard toxicological parameter IC50 was calculated by nonlinear regression from a semilogarithmic plot of incubation concentration versus percentage of absorbance relative to untreated controls using GraphPad Prism 6 software (GraphPad Software Inc., San Diego, CA, USA). IC50 is the inhibitory concentration that reduces the cell viability to 50% of the maximal (control) viability.

Candida glabrata 20/I [11] = experiment: Antifungal microdilution broth MIC, C. glabrata; format: cell-based; conditions: Nakaseomyces glabratus, 24 h incubation, read-out: MIC CG 24 h
[12] = test system: Staphylococcus aureus CCM 4516/08; experiment: Antibacterial microdilution broth MIC, S. aureus; format: cell-based; conditions: CCM4516, 24 h incubation, read-out: MIC SA 24 h
[13] = test system: Escherichia coli CCM 4517; experiment: Antibacterial microdilution broth MIC, E. coli; format: cell-based; conditions: 24 h incubation, read-out: MIC EC 24 h
HepG2 cells = experiment: Cytotoxicity, CellTiter 96 assay; format: cell-based, human; conditions: HepG2, 24 h incubation
Protocol: as §1, §2, §3

[14] = test system: Enterococcus faecalis J 14365/08; experiment: Antibacterial microdilution broth MIC, E. faecalis; format: cell-based; conditions: 24 h incubation, read-out: MIC EF 24 h
[15] = test system: Lichtheimia corymbifera 272; experiment: Antifungal microdilution broth MIC, L. corymbifera; format: cell-based; conditions: 24 h incubation, read-out: MIC LC 24 h
[16] = test system: Aspergillus fumigatus 231; experiment: Antifungal microdilution broth MIC, A. fumigatus; format: cell-based; conditions: 24 h incubation, read-out: MIC AF 24 h
[17] = test system: ESBL-positive Klebsiella pneumoniae J 14368/08; design: method as in PMID 22365879; conditions: 24 h incubation; cited from earlier work
[18] = test system: Staphylococcus epidermidis H 6966/08; design: method as in PMID 22365879; conditions: 24 h incubation; cited from earlier work
[19] = test system: Klebsiella pneumoniae D 11750/08; design: method as in PMID 22365879; conditions: 24 h incubation; cited from earlier work
Candida tropicalis 156 [20] = test system: Candida tropicalis 156; design: method as in PMID 22365879; conditions: 24 h incubation; cited from earlier work
[21] = test system: Aspergillus fumigatus 231; design: method as in PMID 22365879; conditions: 24 h incubation; cited from earlier work
[22] = test system: Enterococcus faecalis J 14365/08; design: method as in PMID 22365879; conditions: 24 h incubation; cited from earlier work
Candida glabrata 20/I [23] = test system: Candida glabrata 20/I; design: method as in PMID 22365879; conditions: 24 h incubation; cited from earlier work
[24] = test system: Staphylococcus aureus CCM 4516/08; design: method as in PMID 22365879; conditions: 24 h incubation; cited from earlier work
[25] = test system: Pseudomonas aeruginosa CCM 1961; design: method as in PMID 22365879; conditions: 24 h incubation; cited from earlier work
Trichosporon asahii 1188 [26] = test system: Trichosporon asahii 1188; design: method as in PMID 22365879; conditions: 24 h incubation; cited from earlier work
[27] = test system: Escherichia coli CCM 4517; design: method as in PMID 22365879; conditions: 24 h incubation; cited from earlier work
[28] = test system: Lichtheimia corymbifera 272; design: method as in PMID 22365879; conditions: 24 h incubation; cited from earlier work
Candida krusei E28 [29] = test system: Candida krusei E28; design: method as in PMID 22365879; conditions: 24 h incubation; cited from earlier work
[30] = test system: methicillin-resistant Staphylococcus aureus H 5996/08 (MRSA); design: method as in PMID 22365879; conditions: cited from earlier work
[31] = test system: Candida albicans ATCC 44859; design: method as in PMID 22365879; conditions: 24 h incubation; cited from earlier work
[32] = MRSA, 24 h, read-out: MIC MRSA 24 h
[33] = MRSA, 48 h, read-out: MIC MRSA 48 h
[34] = Pseudomonas aeruginosa, CCM1961
[35] = Staphylococcus epidermidis, H6966/08
[36] = Enterococcus faecalis, J14365/08

Row | Compound | MIC KP-E 24 h [1] | MIC KP 24 h [2] | MIC [3, 32] | MIC [3, 33] | MIC [4] | MIC [5, 34] | MIC (Candida krusei E28 [6]) | MIC (Candida tropicalis 156 [7]) | MIC [8, 35] | MIC (Trichosporon asahii 1188 [9]) | IC50 at 24 h [10] | MIC (Candida glabrata 20/I [11]) | MIC [12] | MIC ([13]; Escherichia coli, CCM4517) | IC50 (HepG2 cells) | MIC [14, 36] | MIC [15] | MIC [16] | further results
1 | CC(C)(C)c1ccc(O)c(C=Nc2ccc(S(=O)(=O)Nc3ncccn3)cc2)c1 [Compound 2j, 4-{[5-(Tert-butyl)-2-hydroxybenzylidene]amino}-N-(pyrimidin-2-yl)benzenesulfonamide] | >125 µM | >125 µM | > 125 µM | > 125 µM |  |  |  |  |  |  |  |  |  |  |  |  |  |  | SI for Staphylococci (MRSA) ([3]; SI = IC50 (HepG2)/MIC, MRSA): inactive
2 | O=S(=O)(Nc1ncccn1)c1ccc(N=Cc2cc(I)cc(I)c2O)cc1 [Compound 2p, 4-[(2-Hydroxy-3,5-diiodobenzylidene)amino]-N-(pyrimidin-2-yl)benzenesulfonamide] | 125 µM (≈ 75.8 µg/mL) | 125 µM (≈ 75.8 µg/mL) |  | 7.81 µM (≈ 4.73 µg/mL) | 3.9 µM (≈ 2.36 µg/mL) | 500 µM (≈ 303 µg/mL) | 7.81 µM (≈ 4.73 µg/mL) | 7.81 µM (≈ 4.73 µg/mL) | 7.81 µM (≈ 4.73 µg/mL) | 3.9 µM (≈ 2.36 µg/mL) | 38 µM | 3.9 µM (≈ 2.36 µg/mL) | 7.81 µM (≈ 4.73 µg/mL) |  |  |  |  |  | 
3 | O=[N+]([O-])c1ccc(C=Nc2ccc(S(=O)(=O)Nc3ncccn3)cc2)o1 [Compound 2q, 4-{[(5-Nitrofuran-2-yl)methylene]amino}-N-(pyrimidin-2-yl)benzenesulfonamide] |  |  | 125 µM (≈ 46.7 µg/mL) | 125 µM (≈ 46.7 µg/mL) | 250 µM (≈ 93.3 µg/mL) | 250 µM (≈ 93.3 µg/mL) | 250 µM (≈ 93.3 µg/mL) | 250 µM (≈ 93.3 µg/mL) | 31.2 µM (≈ 11.7 µg/mL) | 500 µM (≈ 187 µg/mL) | 16 µM | 250 µM (≈ 93.3 µg/mL) |  | > 500 µM | 16.3 µM | > 500 µM | > 500 µM | 500 µM (≈ 187 µg/mL) | 
4 | O=S(=O)(Nc1ncccn1)c1ccc(N=Cc2ccccc2O)cc1 [Compound 2a, 4-[(2-Hydroxybenzylidene)amino]-N-(pyrimidin-2-yl)benzenesulfonamide] |  |  |  | 250 µM (≈ 88.6 µg/mL) | > 500 µM | 500 µM (≈ 177 µg/mL) | > 500 µM | > 500 µM | 62.5 µM (≈ 22.1 µg/mL) | > 500 µM | > 250 µM | > 500 µM | 500 µM (≈ 177 µg/mL) | > 500 µM | > 500 µM | 31.2 µM (≈ 11.1 µg/mL) | > 500 µM | > 500 µM | 
5 | Bacitracin [reference compound] | >500 µM | >500 µM |  |  |  |  |  |  |  |  |  |  |  |  |  |  |  |  | MIC [5]: >500 µM; MIC [8]: 15.62 µM; MIC [13]: >500 µM; MIC [14]: 15.62 µM; MIC MRSA 24 h ([3]; 24 h incubation): 15.62 µM; MIC MRSA 48 h ([3]; 48 h incubation): 15.62 µM
6 | O=S(=O)(Nc1ncccn1)c1ccc(N=Cc2cc(Cl)ccc2O)cc1 [Compound 2c, 4-[(5-Chloro-2-hydroxybenzylidene)amino]-N-(pyrimidin-2-yl)benzenesulfonamide] |  |  |  |  |  |  |  |  |  |  |  |  |  |  |  |  |  |  | MIC KP-E 24 h [17]: >500 µM; MIC SE 24 h [18]: >500 µM; MIC KP 24 h [19]: >500 µM; MIC CT 24 h (Candida tropicalis 156 [20]): >500 µM; MIC AF 24 h [21]: >500 µM; MIC EF 24 h [22]: >500 µM; MIC CG 24 h (Candida glabrata 20/I [23]): 125 µM (≈ 48.6 µg/mL); MIC SA 24 h [24]: 250 µM (≈ 97.2 µg/mL); MIC PA 24 h [25]: >500 µM; MIC TA 24 h (Trichosporon asahii 1188 [26]): 62.5 µM (≈ 24.3 µg/mL); MIC EC 24 h [27]: >500 µM; MIC LC 24 h [28]: >500 µM; MIC CK 24 h (Candida krusei E28 [29]): >500 µM; MIC MRSA 24 h ([30]; 24 h incubation): 125 µM (≈ 48.6 µg/mL); MIC MRSA 48 h ([30]; 48 h incubation): 125 µM (≈ 48.6 µg/mL); MIC CA 24 h [31]: 125 µM (≈ 48.6 µg/mL)

— PMC6151383 (Molecules : A Journal of Synthetic Chemistry and Natural …, 2017)
